Experimental data published in US20130158073A1, “Methods Of Diminishing Co-Abuse Potential” (priority 2004, published 2013).
Where a name gives a salt, the structure may show the parent alone.

Tested on: male Sprague-Dawley rats
Details: coadministered with 10% w/v ethanol, i.p. 15 minutes before session; at one or more doses; group average

SMILES | percentage of responses during test sessions on the lever associated with ethanol/cocaine [%]
COC(=O)C(c1ccccc1)C1CCCCN1 (racemic) [d,l-MPH, d,l-methylphenidate HCl] | 100
COC(=O)[C@H]1[C@@H](OC(=O)c2ccccc2)C[C@@H]2CC[C@H]1N2C [cocaine] | 100
